In article PMC7819943, “Rice protein-binding microarrays: a tool to detect cis-acting elements near promoter regions in rice”:
The list shows a part of the results.

What follows are sequences tested against T1, OsWOX13 (Oryza sativa, UniProt Q5QMM3 1-267) (assay: protein-binding microarray (RPBM); PBS, 2% BSA, 51.3 ng/ul salmon testes DNA, 50 uM zinc acetate, 200 nM TF, 25 C, 1 h; high values mean tight binding). Details: protein: recombinant; tags: N-terminal polyhistidine and DsRed monomer fusion (pET32a); label: CyDye5-dUTP incorporated in the synthesized complementary strand; 3' TTTTT single-stranded linker to array surface; dsDNA, one strand shown.
T1 sequence: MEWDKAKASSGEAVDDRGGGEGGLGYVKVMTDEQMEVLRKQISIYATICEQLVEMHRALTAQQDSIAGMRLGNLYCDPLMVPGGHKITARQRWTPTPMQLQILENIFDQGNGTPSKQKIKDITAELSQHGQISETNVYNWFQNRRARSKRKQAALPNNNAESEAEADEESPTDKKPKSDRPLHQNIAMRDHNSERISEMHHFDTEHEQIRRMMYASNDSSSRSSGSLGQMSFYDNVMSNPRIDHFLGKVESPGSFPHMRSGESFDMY
How it was run: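 Transcription factors were each fused at the N-terminus to a polyhistidine tag plus DsRed and expressed in E. coli BL21-CodonPlus before Ni–NTA purification. Binding to a double-stranded custom Agilent array was carried out with 200 nM protein at 25 °C for 1 h in PBS, 2% BSA, salmon testes DNA and 50 µM zinc acetate. The binding signal is per-feature fluorescence intensity, in arbitrary units, on an Axon 4000B scanner.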

Row | Sequence | binding signal
1 | CCCTTGTAATTATTTGATATTAGATCATTCCCTAATATTCCGGAGTCACCTAGTGCAG | 10500 fluorescence intensity (a.u.)
2 | AATAATTTCTCCGCGGGAAGGTGGGATTTCTACCCGATTCCGGAGTCACCTAGTGCAG | 5220 fluorescence intensity (a.u.)
3 | TGTAAATTACTTTTAGGCTTCACTGAATTTACTTTTATATCGGAGTCACCTAGTGCAG | 3550 fluorescence intensity (a.u.)
4 | AATGGATAATGGGATGACATATAATGGTTAACTTACACACCGGAGTCACCTAGTGCAG | 4470 fluorescence intensity (a.u.)
5 | TAAGCCTAATTAATATGTCATTAGCGTCAAATCATTGATCCGGAGTCACCTAGTGCAG | 25900 fluorescence intensity (a.u.)
6 | ATGCTTAATTTGGGCTCATTTATAAGGGCCGAAATGGAGGCGGAGTCACCTAGTGCAG | 13600 fluorescence intensity (a.u.)
7 | AATGTTGTCACATATAATTATTATGAAGTTTGATAGCTGTCGGAGTCACCTAGTGCAG | 7330 fluorescence intensity (a.u.)
8 | CGCCAACCACCGGCGCTGATTGGAGAGAGATCGGCGATTACGGAGTCACCTAGTGCAG | 5150 fluorescence intensity (a.u.)
9 | GGCTATTTCTGTACTAGTGATTGGTCACTGCTCACACTGACGGAGTCACCTAGTGCAG | 6240 fluorescence intensity (a.u.)
10 | GGAAATTTAACTATTTGCCACTATTAGGTTCGGTAATTATCGGAGTCACCTAGTGCAG | 4440 fluorescence intensity (a.u.)
11 | AAACCAAATTTAATCACCAAAGGTCTAATGTTTGGGAACTCGGAGTCACCTAGTGCAG | 5220 fluorescence intensity (a.u.)
12 | ATCAACTTAGAAATTGATGAGACACTTCCCTCAATCTCAGCGGAGTCACCTAGTGCAG | 4370 fluorescence intensity (a.u.)
13 | TAGTTCATAATTATAGAGTTAGTGGCACATGATGGGAAGCCGGAGTCACCTAGTGCAG | 12300 fluorescence intensity (a.u.)
14 | ACTAGATTACTTGTGATGGAAACAGCTCATCTGAGCTCAACGGAGTCACCTAGTGCAG | 28700 fluorescence intensity (a.u.)
15 | AGCTAGACAGCAATCATTCCACACGTTCTCCTCTCCTGCTCGGAGTCACCTAGTGCAG | 15500 fluorescence intensity (a.u.)
16 | TAATAATAATTAATTTGTTTCCAAACTTATTAAACTAAAACGGAGTCACCTAGTGCAG | 11200 fluorescence intensity (a.u.)
17 | GGCTAATTTGAGGCTAAAATGTGAGGGCTAAACAGTGGGGCGGAGTCACCTAGTGCAG | 22600 fluorescence intensity (a.u.)
18 | GAACTAAAATAGATATTCCTGATTTATAGGGCAGACGAAGCGGAGTCACCTAGTGCAG | 4040 fluorescence intensity (a.u.)
19 | GATAAATCTAGTAACATTAATTTTAGATGTTTGATCTTTTCGGAGTCACCTAGTGCAG | 6500 fluorescence intensity (a.u.)
20 | AGATACTAATTTAGAGTATTAAATATAGACTACTTATAAACGGAGTCACCTAGTGCAG | 4070 fluorescence intensity (a.u.)
21 | GACTAAATGACAAACTACCTTTGCTTCCATCGCCAACTAACGGAGTCACCTAGTGCAG | 7060 fluorescence intensity (a.u.)
22 | CCAGGGTGATTAGCTTTACGTTTTAATAATGCTATAGAATCGGAGTCACCTAGTGCAG | 21000 fluorescence intensity (a.u.)
23 | ACTTGTAGTAATTTAATTTGAAATTCTGTTCTTGCCTCTGCGGAGTCACCTAGTGCAG | 6760 fluorescence intensity (a.u.)
24 | ATCTGGCCCTAATTATTTGTTGCCGAATACCAAGTGTTTGCGGAGTCACCTAGTGCAG | 4490 fluorescence intensity (a.u.)
25 | ATGATTAGTTCGTACGTATTGCGCGCACAAACAAATGTATCGGAGTCACCTAGTGCAG | 13900 fluorescence intensity (a.u.)
26 | AAATGATAGACTAAAATTTGGTAATGTCAAATTAGTTTGACGGAGTCACCTAGTGCAG | 12300 fluorescence intensity (a.u.)
27 | GCAATAGACTAGATTAATAGTAAACCACTTCAATGGTATGCGGAGTCACCTAGTGCAG | 7530 fluorescence intensity (a.u.)

Row | Sequence | binding signal
28 | AACTGATTAGAAAATATTTAATAAATGTGTAGTCGAGTGGCGGAGTCACCTAGTGCAG | 43400 fluorescence intensity (a.u.)
29 | GTAATTAGGCTAACTTTATAATTGGATCCGTTCATTCCAACGGAGTCACCTAGTGCAG | 15900 fluorescence intensity (a.u.)
30 | CAGCTTAATTTGCTTGGTCGTTATGCCCACAATCTACACCCGGAGTCACCTAGTGCAG | 18800 fluorescence intensity (a.u.)
31 | TGCAAAATAAATTAAAACGAGTATTGAAAGATGTCCACTTCGGAGTCACCTAGTGCAG | 3910 fluorescence intensity (a.u.)
32 | AAAACAAATTACAGATTCCATCTGTAAACTGCGAGACGAACGGAGTCACCTAGTGCAG | 6630 fluorescence intensity (a.u.)
33 | TTGAAATAATTAAAACTCAATTAATTACCTTCTTGTTTGTCGGAGTCACCTAGTGCAG | 24800 fluorescence intensity (a.u.)
34 | AATAATTGAAAATTTTGTTTGAGTGCACATCGTGTGCATTCGGAGTCACCTAGTGCAG | 32400 fluorescence intensity (a.u.)
35 | GATCATTTAAGTGATTATTTTAATTGGGAAAGTAATAAAACGGAGTCACCTAGTGCAG | 13200 fluorescence intensity (a.u.)
36 | TACTAGTCGTAAATTAATTATCATCTTGTCTTATTTCTTTCGGAGTCACCTAGTGCAG | 8300 fluorescence intensity (a.u.)
37 | AATTCCGATTTCTCCCTAAATTGGGAGGCCCATTGCTGAGCGGAGTCACCTAGTGCAG | 3710 fluorescence intensity (a.u.)
38 | ATTACAATATTATAATTATATAACACAATTAAGGTAGAGTCGGAGTCACCTAGTGCAG | 11600 fluorescence intensity (a.u.)
39 | AAGAGTGGTAAATAATTAATTATTCCATTATCTTCAGGTGCGGAGTCACCTAGTGCAG | 25600 fluorescence intensity (a.u.)
40 | ACCACCTGCTGCTAATTGACAAGTTGTCTAATCAGTCGATCGGAGTCACCTAGTGCAG | 30000 fluorescence intensity (a.u.)
41 | AATTTAAATTTTAAACTTACATTTAGAGTTAATTTTAAGGCGGAGTCACCTAGTGCAG | 12900 fluorescence intensity (a.u.)
42 | TGTTAATTCCACATCAGCGCTACGTCAATGCCACGTGGTACGGAGTCACCTAGTGCAG | 5690 fluorescence intensity (a.u.)
43 | AACCAATCACCGGCCGCGAGCGTCACCCCGGAAAATATAACGGAGTCACCTAGTGCAG | 12900 fluorescence intensity (a.u.)
44 | ATAATGGATGTTGACAAAGTCGGTGGTATATTATTGAAACCGGAGTCACCTAGTGCAG | 3940 fluorescence intensity (a.u.)
45 | TGCTCAATTAACAAAGTTGATTAATCAGACTAGTAGAATCCGGAGTCACCTAGTGCAG | 37000 fluorescence intensity (a.u.)
46 | GCAGCTTTGATCATTTCAATCAGGTGATTCAGACCAAAGTCGGAGTCACCTAGTGCAG | 10100 fluorescence intensity (a.u.)
47 | TAAAACTGATGCTAAACTTTCTAATCAAGCTATACCCATACGGAGTCACCTAGTGCAG | 8680 fluorescence intensity (a.u.)
48 | GCAAACATAAAGTAATTTGTGAATATAATTTATATGTACTCGGAGTCACCTAGTGCAG | 7640 fluorescence intensity (a.u.)
49 | CCTCTAACAGCTGGATTGCTGCACATGTTTCCTGATTCCTCGGAGTCACCTAGTGCAG | 3880 fluorescence intensity (a.u.)
50 | ACGAACATGTTTAATTAAGCACAGTTGTCTAGGCTTCAGCCGGAGTCACCTAGTGCAG | 4100 fluorescence intensity (a.u.)
51 | GTCATGACTCATGAATGCCAATTTAGGCTAAATTCGGCGCCGGAGTCACCTAGTGCAG | 5180 fluorescence intensity (a.u.)
52 | ACTTACAAAACTAATTACATAAATAAAAGCTAATTCACGACGGAGTCACCTAGTGCAG | 4520 ± 107 fluorescence intensity (a.u.)
53 | GTGGCTTAATTGGATGAAGTTACTGTGGGGAAACAGGGCCCGGAGTCACCTAGTGCAG | 34600 fluorescence intensity (a.u.)
54 | ACTCTGTCATCAACTTAATTGTTAGAAGCGACCTAAAGATCGGAGTCACCTAGTGCAG | 22000 fluorescence intensity (a.u.)
